# Test results taken from the supplement of paper PMC12217912.
# The other results are listed elsewhere or left out. The full chains were built here from the parent and the listed change. Values near 0.05 are background.
# B1: TEV protease; numbered along this chain (parent)
# chain: MGESLFKGPRDYNPISSSICHLTNESDGHTTSLYGIGFGPFIITNKHLFRRNNGTLVVQSLHGVFKVKDTTTLQQHLVDGRDMIIIRMPKDFPPFPQKLKFREPQREERICLVTTNFQTKSMSSMVSDTSCTFPSGDGIFWKHWIQTKDGQCGSPLVSTRDGFIVGIHSASNFTNTNNYFTSVPKNFMELLTNQEAQQWVSGWRLNADSVLWGGHKVFMVKPEEPFQPVKEATQL
# Variants of: B1
# Test: raw area under fraction-flipped curve 0-4 h after induction (AUC4h, not background-subtracted), DNA-recorder readout of cleavage of the substrate (dimensionless); higher = more cleavage of the substrate by the protease variant
# Details: temperature: 34 °C; time window: 0-4 h after rhamnose induction
# Description: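 In vivo DNA recorder in E. coli TOP10(DE3) ΔrhaA at 34 °C. Each TEVp single-site mutant (parent TEVp 0) is paired with a single-site variant of the 7-mer TEVs (canonical ENLYFQ|S). The substrate sits between flexible linkers in a Bxb1-sfGFP-TEVs-SsrA fusion, so cleavage stabilises Bxb1 and speeds flipping of a recombination array, read by NGS. The value is the raw area under the fraction-flipped curve over 0-4 h after rhamnose induction (AUC4h), with ≥20 reads per time point. It is not background-subtracted; inactive controls average about 0.047.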
# 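Note: Bxb1 expression induced with 0.2% (w/v) L-rhamnose at OD600 near 0.5, cultures sampled hourly, flipped fraction per protease–substrate barcode pair counted by paired-end Illumina sequencing.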
Variant,area with substrate ENLYFAS,area with substrate ENLYFCS,area with substrate ENLYFES,area with substrate ENLYFFS,area with substrate ENLYFHS,area with substrate ENLYFIS,area with substrate ENLYFKS,area with substrate ENLYFMS,area with substrate ENLYFNS,area with substrate ENLYFPS,area with substrate ENLYFRS,area with substrate ENLYFSS,area with substrate ENLYFVS,area with substrate ENLYFLS,area with substrate ENLYFTS,area with substrate ENLYFWS,area with substrate ENLYFYS,area with substrate ENLYFDS,area with substrate ENLYFGS
MGESLFKGPRDYNPISSSICHLTNESDGHTTSLYGIGFGPFIITNKHLFRRNNGTLVVQSLHGVFKVKDTTTLQQHLVDGRWMIIIRMPKDFPPFPQKLKFREPQREERICLVTTNFQTKSMSSMVSDTSCTFPSGDGIFWKHWIQTKDGQCGSPLVSTRDGFIVGIHSASNFTNTNNYFTSVPKNFMELLTNQEAQQWVSGWRLNADSVLWGGHKVFMVKPEEPFQPVKEATQL [D82W],0.0465,0.0498,0.057,0.0414,0.055,0.0554,0.0621,0.0654,0.0445,0.0551,0.0585,0.0633,0.0535,–,–,–,–,–,–
MGESLFKGPRDYNPISSSICHLTNESDGHTTSLYGIGFGPFIITNKHLFRRNNGTLVVQSLHGVFKVKDTTTLQQHLVDGRDMCIIRMPKDFPPFPQKLKFREPQREERICLVTTNFQTKSMSSMVSDTSCTFPSGDGIFWKHWIQTKDGQCGSPLVSTRDGFIVGIHSASNFTNTNNYFTSVPKNFMELLTNQEAQQWVSGWRLNADSVLWGGHKVFMVKPEEPFQPVKEATQL [I84C],0.0562,–,0.0626,0.0641,–,0.05,–,0.0721,–,0.0402,0.055,0.0441,0.0583,0.0671,0.0734,0.0486,0.0617,–,–
MGESLFKGPRDYNPISSSICHLTNESDGHTTSLYGIGFGPFIITNKHLFRRNNGTLVVQSLHGVFKVKDTTTLQQHLVDGRDMIMIRMPKDFPPFPQKLKFREPQREERICLVTTNFQTKSMSSMVSDTSCTFPSGDGIFWKHWIQTKDGQCGSPLVSTRDGFIVGIHSASNFTNTNNYFTSVPKNFMELLTNQEAQQWVSGWRLNADSVLWGGHKVFMVKPEEPFQPVKEATQL [I85M],0.0826,0.0546,–,0.0425,0.0413,0.0551,0.0524,–,0.052,0.068,–,–,–,–,0.0492,–,–,0.0519,–
MGESLFKGPRDYNPISSSICHLTNESDGHTTSLYGIGFGPFIITNKHLFRRNNGTLVVQSLHGVFKVKDTTTLQQHLVDGRDMIVIRMPKDFPPFPQKLKFREPQREERICLVTTNFQTKSMSSMVSDTSCTFPSGDGIFWKHWIQTKDGQCGSPLVSTRDGFIVGIHSASNFTNTNNYFTSVPKNFMELLTNQEAQQWVSGWRLNADSVLWGGHKVFMVKPEEPFQPVKEATQL [I85V],0.116,–,0.0767,0.0739,–,–,0.0602,0.053,0.0577,0.0666,0.0673,–,0.056,–,0.0617,0.0627,0.0528,–,–
MGESLFKGPRDYNPISSSICHLTNESDGHTTSLYGIGFGPFIITNKHLFRRNNGTLVVQSLHGVFKVKDTTTLQQHLVDGRDMIIERMPKDFPPFPQKLKFREPQREERICLVTTNFQTKSMSSMVSDTSCTFPSGDGIFWKHWIQTKDGQCGSPLVSTRDGFIVGIHSASNFTNTNNYFTSVPKNFMELLTNQEAQQWVSGWRLNADSVLWGGHKVFMVKPEEPFQPVKEATQL [I86E],0.0381,–,0.0402,0.0427,0.0353,0.0387,–,0.0328,–,0.0389,0.0283,–,–,–,0.0607,0.0329,0.034,–,0.031
MGESLFKGPRDYNPISSSICHLTNESDGHTTSLYGIGFGPFIITNKHLFRRNNGTLVVQSLHGVFKVKDTTTLQQHLVDGRDMIIKRMPKDFPPFPQKLKFREPQREERICLVTTNFQTKSMSSMVSDTSCTFPSGDGIFWKHWIQTKDGQCGSPLVSTRDGFIVGIHSASNFTNTNNYFTSVPKNFMELLTNQEAQQWVSGWRLNADSVLWGGHKVFMVKPEEPFQPVKEATQL [I86K],0.0255,0.0463,0.0392,0.0417,0.0281,0.0381,0.0324,–,0.0369,–,–,0.0393,–,–,0.0336,–,0.0442,–,–
MGESLFKGPRDYNPISSSICHLTNESDGHTTSLYGIGFGPFIITNKHLFRRNNGTLVVQSLHGVFKVKDTTTLQQHLVDGRDMIIIRMPLDFPPFPQKLKFREPQREERICLVTTNFQTKSMSSMVSDTSCTFPSGDGIFWKHWIQTKDGQCGSPLVSTRDGFIVGIHSASNFTNTNNYFTSVPKNFMELLTNQEAQQWVSGWRLNADSVLWGGHKVFMVKPEEPFQPVKEATQL [K90L],0.0603,–,–,0.0746,0.0578,0.0569,0.0658,0.0646,0.0589,0.0568,0.0631,0.0491,0.0507,0.0522,0.0555,0.0481,0.0491,0.0869,–
MGESLFKGPRDYNPISSSICHLTNESDGHTTSLYGIGFGPFIITNKHLFRRNNGTLVVQSLHGVFKVKDTTTLQQHLVDGRDMIIIRMPKDFPPVPQKLKFREPQREERICLVTTNFQTKSMSSMVSDTSCTFPSGDGIFWKHWIQTKDGQCGSPLVSTRDGFIVGIHSASNFTNTNNYFTSVPKNFMELLTNQEAQQWVSGWRLNADSVLWGGHKVFMVKPEEPFQPVKEATQL [F95V],0.0334,–,–,0.0524,–,0.0502,–,0.066,–,0.0533,–,–,–,–,0.0554,–,0.052,–,–
MGESLFKGPRDYNPISSSICHLTNESDGHTTSLYGIGFGPFIITNKHLFRRNNGTLVVQSLHGVFKVKDTTTLQQHLVDGRDMIIIRMPKDFPPWPQKLKFREPQREERICLVTTNFQTKSMSSMVSDTSCTFPSGDGIFWKHWIQTKDGQCGSPLVSTRDGFIVGIHSASNFTNTNNYFTSVPKNFMELLTNQEAQQWVSGWRLNADSVLWGGHKVFMVKPEEPFQPVKEATQL [F95W],0.049,0.0546,0.0724,0.073,–,0.056,0.0674,0.061,0.0696,0.0602,0.068,–,0.0606,0.0729,0.0562,0.0472,0.057,–,–
MGESLFKGPRDYNPISSSICHLTNESDGHTTSLYGIGFGPFIITNKHLFRRNNGTLVVQSLHGVFKVKDTTTLQQHLVDGRDMIIIRMPKDFPPFPIKLKFREPQREERICLVTTNFQTKSMSSMVSDTSCTFPSGDGIFWKHWIQTKDGQCGSPLVSTRDGFIVGIHSASNFTNTNNYFTSVPKNFMELLTNQEAQQWVSGWRLNADSVLWGGHKVFMVKPEEPFQPVKEATQL [Q97I],0.0556,–,–,0.0789,–,0.0676,–,0.0607,0.0587,–,–,–,–,–,0.0622,0.0667,–,–,–
